Laboratory results taken from the supplement of paper PMC4967469.
The IC50 comes from the fitted curve, where viability falls to half of the control; where the fit passes the top or lowest dose, that dose stands as a limit. The AUC spans the tested range (256-fold, ending at the top dose) of the same fit; the more sensitive the line, the further below 1. For some assays here: Any top dose called inferred is not printed in the source and was worked back from the curve model.

Experiments:
Assay in all cases: Viability of human cancer cell lines after 72 h of drug (GDSC screen)
BMS-345541 = compound: Cc1ccc2nc(NCCN)c3ncc(C)n3c2c1 [BMS-345541]; settings: top dose 16 µM
Experimental: (§1)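 Human cancer cell lines in 384-well plates, medium with 10% serum, drug for 72 h over a 256-fold dose range (nine 2-fold or five 4-fold steps up to the top dose). Adherent lines were fixed and stained with the nucleic acid dye Syto60, suspension lines read with resazurin; signal relative to control wells, capped at 0 and 100%. One two-parameter sigmoid per drug and line, fitted in a mixed model over all curves with the slope shared within a line.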

Bexarotene = compound: C=C(c1ccc(C(=O)O)cc1)c1cc2c(cc1C)C(C)(C)CCC2(C)C [Bexarotene]; settings: top dose 8 µM
Experimental: as §1

Etoposide = compound: COc1cc([C@@H]2c3cc4c(cc3[C@@H](O[C@@H]3O[C@@H]5CO[C@@H](C)O[C@H]5[C@H](O)[C@H]3O)[C@H]3COC(=O)[C@H]23)OCO4)cc(OC)c1O [Etoposide]; settings: top dose 16 µM
Experimental: as §1

XAV 939 = compound: Oc1nc(-c2ccc(C(F)(F)F)cc2)nc2c1CSCC2 [XAV 939]; settings: top dose 5 µM; top dose inferred
Experimental: as §1

YK 4-279 = compound: COc1ccc(C(=O)CC2(O)C(=O)Nc3c(Cl)ccc(Cl)c32)cc1 [YK 4-279]; settings: top dose 10 µM
Experimental: as §1

NPK76-II-72-1 = compound: COc1cc(C(=O)NC2CCN(C)CC2)ccc1Nc1ncc2c(n1)N(C1CCCC1)C(C)CC(=O)N2C [NPK76-II-72-1]; settings: top dose 10.24 µM; top dose inferred
Experimental: as §1

GSK-650394 = compound: O=C(O)c1ccc(-c2c[nH]c3ncc(-c4ccccc4)cc23)cc1C1CCCC1 [GSK-650394]; settings: top dose 16 µM; top dose inferred
Experimental: as §1

Cell Line	AUC (BMS-345541)	IC50 (BMS-345541)	AUC (Bexarotene)	IC50 (Bexarotene)	AUC (Etoposide)	IC50 (Etoposide)	AUC (XAV 939)	IC50 (XAV 939)	AUC (YK 4-279)	IC50 (YK 4-279)	AUC (NPK76-II-72-1)	IC50 (NPK76-II-72-1)	AUC (GSK-650394)	IC50 (GSK-650394)
769-P (kidney, adherent)	0.719	4.45 µM	0.963	> 8 µM	0.607	2.03 µM	0.94	> 5 µM	0.856	9.23 µM	0.929	> 10.2 µM	0.717	4.39 µM
786-0 (kidney, adherent)	0.742	4.59 µM	0.907	> 8 µM	0.394	0.525 µM	0.987	> 5 µM	0.763	3.34 µM	0.95	> 10.2 µM	0.602	1.86 µM
A204 (rhabdomyosarcoma, adherent)	0.859	> 16 µM	0.891	> 8 µM	0.326	0.282 µM	0.944	> 5 µM	0.732	3.53 µM	0.886	> 10.2 µM	0.819	12.8 µM
A673 (rhabdomyosarcoma, adherent)	0.923	> 16 µM	0.947	> 8 µM	0.648	2.45 µM	0.98	> 5 µM	0.665	1.7 µM	0.914	> 10.2 µM	0.846	9.91 µM
BCPAP (thyroid, adherent)	0.892	15.7 µM	0.915	> 8 µM	0.466	0.813 µM	0.97	> 5 µM	0.672	1.78 µM	0.898	> 10.2 µM	0.767	5.42 µM
BEN (non-small cell lung carcinoma, adherent)	0.901	> 16 µM	0.899	> 8 µM	0.901	> 16 µM	0.985	> 5 µM	0.916	> 10 µM	0.935	> 10.2 µM	0.866	> 16 µM
BFTC-909 (kidney, adherent)	0.977	> 16 µM	0.908	> 8 µM	0.522	1.14 µM	0.9	> 5 µM	0.689	2.09 µM	0.974	> 10.2 µM	0.81	8.17 µM
BHY (head and neck, adherent)	0.801	7.83 µM	0.941	> 8 µM	0.58	1.65 µM	0.947	> 5 µM	0.698	2.26 µM	0.905	> 10.2 µM	0.749	5.19 µM
BPH-1 (prostate, adherent)	0.602	1.96 µM	0.977	> 8 µM	0.512	1.08 µM	0.876	> 5 µM	0.637	1.56 µM	0.625	1.47 µM	0.9	> 16 µM
CAL-54 (kidney, adherent)	0.947	> 16 µM	0.984	> 8 µM	0.814	10.4 µM	0.952	> 5 µM	0.769	4.32 µM	0.915	> 10.2 µM	0.985	> 16 µM
CAMA-1 (breast, adherent)	0.928	> 16 µM	0.78	4.2 µM	0.716	4.83 µM	0.965	> 5 µM	0.802	6.45 µM	0.961	> 10.2 µM	0.851	> 16 µM
COR-L105 (lung adenocarcinoma, adherent)	0.846	15.7 µM	0.951	> 8 µM	0.801	9.91 µM	0.918	> 5 µM	0.907	> 10 µM	0.892	> 10.2 µM	0.842	15 µM
ChaGo-K-1 (non-small cell lung carcinoma, adherent)	0.865	> 16 µM	0.942	> 8 µM	0.673	3.29 µM	0.957	> 5 µM	0.64	1.63 µM	0.951	> 10.2 µM	0.887	> 16 µM
HCE-4 (oesophagus, adherent)	0.936	> 16 µM	0.967	> 8 µM	0.436	0.686 µM	–	–	0.68	1.83 µM	0.991	> 10.2 µM	0.788	5.94 µM
HPAC (pancreas, adherent)	0.91	> 16 µM	0.967	> 8 µM	0.618	2.41 µM	–	–	0.776	5.75 µM	0.909	> 10.2 µM	0.612	2.3 µM
HT-144 (melanoma, adherent)	0.982	> 16 µM	–	–	0.175	0.0899 µM	0.965	> 5 µM	0.766	4.12 µM	0.978	> 10.2 µM	0.875	> 16 µM
IM-95 (stomach, adherent)	0.705	3.94 µM	0.849	6.65 µM	0.735	4.92 µM	–	–	0.871	> 10 µM	0.914	> 10.2 µM	0.722	4.48 µM
KOSC-2 (head and neck, adherent)	–	–	0.985	> 8 µM	0.911	> 16 µM	0.929	> 5 µM	0.552	0.873 µM	0.914	> 10.2 µM	0.845	12.3 µM
KP-4 (pancreas, adherent)	0.893	> 16 µM	–	–	0.353	0.4 µM	0.982	> 5 µM	0.651	1.61 µM	0.967	> 10.2 µM	0.723	4.15 µM
